{"source": "the antibiotic and cytotoxicity screens of Wong et al. (2023)", "note": "Some of the results follow.", "data": [{"test_system": "HepG2", "assay": "cytotoxicity call (relative viability < 0.9)", "conditions": "10 µM", "values": [{"smiles": "Cn1c(=O)c2c(ncn2CC(=O)N2CCN(C(=O)c3ccco3)CC2)n(C)c1=O", "cytotoxicity call": "inactive"}, {"smiles": "NCCCN", "cytotoxicity call": "inactive"}, {"smiles": "C[C@H](CO)N1C[C@H](C)[C@@H](CN(C)C(=O)Nc2cccc3ccccc23)OCCCC[C@H](C)Oc2ccc(NC(=O)C3CCCCC3)cc2C1=O", "cytotoxicity call": "inactive"}, {"smiles": "COCCOC(=O)N1C(=O)[C@@]2(c3cc(C#CCC(C(=O)OC)C(=O)OC)ccc31)[C@H](C(=O)N1CCc3cc(OC)c(OC)cc3C1)[C@H]1C(=O)O[C@H](c3ccccc3)[C@H](c3ccccc3)N1[C@@H]2c1ccc(O)cc1", "cytotoxicity call": "inactive"}, {"smiles": "O=C(C[C@@H]1CC=CCC[C@H](Cc2ccc(F)cc2)C(=O)OC[C@@H](Cc2c[nH]c3ccccc23)NC1=O)N[C@@H](CO)Cc1ccccc1", "cytotoxicity call": "inactive"}, {"smiles": "COc1ccc(NC(=O)Nc2ccc3c(c2)C(=O)N([C@H](C)CO)C[C@H](C)[C@@H](CN(C)S(=O)(=O)c2ccc(OC)cc2)OCCCC[C@H](C)O3)cc1", "cytotoxicity call": "inactive"}, {"smiles": "C[C@H](CO)N1C[C@H](C)[C@@H](CN(C)C(=O)Nc2cccc3ccccc23)Oc2ccc(NS(=O)(=O)c3ccc(F)cc3)cc2C1=O", "cytotoxicity call": "inactive"}, {"smiles": "C[C@H](CO)N1C[C@H](C)[C@@H](CN(C)C(=O)Nc2ccc(C(F)(F)F)cc2)OCCCC[C@H](C)Oc2ccc(NC(=O)Nc3ccccc3)cc2C1=O", "cytotoxicity call": "inactive"}, {"smiles": "C[C@@H]1CCCCO[C@H](CN(C)S(=O)(=O)c2ccccc2)[C@H](C)CN([C@@H](C)CO)C(=O)c2cc(NC(=O)C3CCCCC3)ccc2O1", "cytotoxicity call": "inactive"}, {"smiles": "CCCC(=O)Nc1nc2[nH]c(C)cc(=O)n2n1", "cytotoxicity call": "inactive"}, {"smiles": "C[C@@H]1CN([C@H](C)CO)C(=O)c2cccc(NC(=O)C3CCOCC3)c2O[C@H]1CN(C)Cc1ccc(C(=O)O)cc1", "cytotoxicity call": "inactive"}, {"smiles": "Cc1noc(C)c1NC(=O)N[C@@H]1CC[C@@H](CC(=O)N2CCN(C)CC2)O[C@H]1CO", "cytotoxicity call": "inactive"}, {"smiles": "COC(=O)[C@@H](N)Cc1ccc(-n2cc(CCC(=O)NO)nn2)cc1", "cytotoxicity call": "active"}, {"smiles": "CCOC(=O)N1CCN(C(=O)C2CCN(S(=O)(=O)N(CC)CC)CC2)CC1", "cytotoxicity call": "inactive"}, {"smiles": "COc1ccc(NC(=O)Nc2cccc3c2O[C@@H](CN(C)S(=O)(=O)c2cn(C)cn2)[C@@H](C)CN([C@H](C)CO)C3=O)cc1", "cytotoxicity call": "inactive"}, {"smiles": "COc1ccc(CN(C)C[C@H]2OCCCC[C@H](C)Oc3ccc(NS(=O)(=O)c4ccc(Cl)cc4)cc3C(=O)N([C@@H](C)CO)C[C@@H]2C)cc1", "cytotoxicity call": "inactive"}, {"smiles": "C[C@H]1CN([C@@H](C)CO)C(=O)c2cc(NS(=O)(=O)c3ccc(F)cc3)ccc2O[C@H]1CN(C)C(=O)Nc1ccc(C(F)(F)F)cc1", "cytotoxicity call": "inactive"}, {"smiles": "O=C(N[C@H]1CC=CC[C@H](CC(=O)N(CCO)Cc2ccccc2)C(=O)N[C@@H](Cc2ccccc2)COC1=O)OCC1c2ccccc2-c2ccccc21", "cytotoxicity call": "active"}, {"smiles": "C[C@@H]1CCCCO[C@@H](CN(C)CC2CC2)[C@H](C)CN([C@H](C)CO)C(=O)c2cc(NC(=O)Nc3ccccc3)ccc2O1", "cytotoxicity call": "inactive"}, {"smiles": "C[C@H]1CN([C@@H](C)CO)C(=O)Cc2cc(NS(=O)(=O)c3cn(C)cn3)ccc2O[C@H]1CN(C)Cc1ccc(C(=O)O)cc1", "cytotoxicity call": "inactive"}, {"smiles": "C[C@@H]1CN([C@@H](C)CO)C(=O)c2cc(NS(=O)(=O)c3cccs3)ccc2O[C@H]1CN(C)Cc1ccncc1", "cytotoxicity call": "inactive"}, {"smiles": "C[C@H](CO)N1C[C@H](C)[C@@H](CN(C)C(=O)Nc2ccc(C(F)(F)F)cc2)Oc2c(NC(=O)Nc3cccc4ccccc34)cccc2C1=O", "cytotoxicity call": "active"}, {"smiles": "CC(C)CCCC(C)NC(C)C.Cl", "note": "(centres undefined)", "cytotoxicity call": "inactive"}, {"smiles": "Cc1noc(C)c1NC(=O)N(C)C[C@@H]1OCCCC[C@H](C)Oc2ccc(NS(=O)(=O)c3cccs3)cc2C(=O)N([C@@H](C)CO)C[C@@H]1C", "cytotoxicity call": "inactive"}, {"smiles": "C[C@H](CO)N1C[C@H](C)[C@H](CN(C)C(=O)Cc2cccnc2)Oc2ncc(C#CC3(O)CCCC3)cc2C1=O", "cytotoxicity call": "inactive"}, {"smiles": "Cc1noc(C)c1NC(=O)Nc1ccc2c(c1)C(=O)N([C@@H](C)CO)C[C@@H](C)[C@@H](CN(C)Cc1ccc(C(F)(F)F)cc1)OCCCC[C@@H](C)O2", "cytotoxicity call": "inactive"}, {"smiles": "COc1ccc(S(=O)(=O)Nc2ccc3c(c2)C(=O)N([C@H](C)CO)C[C@@H](C)[C@@H](CN(C)S(=O)(=O)c2ccccc2)O3)cc1", "cytotoxicity call": "inactive"}, {"smiles": "Cc1noc(C)c1NC(=O)Nc1ccc2c(c1)CC(=O)N([C@H](C)CO)C[C@@H](C)[C@@H](CN(C)Cc1ccc(C(F)(F)F)cc1)O2", "cytotoxicity call": "inactive"}, {"smiles": "Cn1c([C@H]2C=C(C(=O)N[C@H]3c4ccccc4C[C@H]3O)O[C@@H](OCCCCO)C2)cc(=O)n1-c1ccccc1", "cytotoxicity call": "inactive"}]}]}
